# The other results are listed elsewhere or left out. These are further read-outs of the screen, such as a control signal, another cell line or another target. No call is given for them. Potencies come from curve fits of mixed quality, noted in brackets.
# Test: qHTS drug screen for cell cycle checkpoint inhibitors in PARPi-resistant BRCA-mutant ovarian cancer cell lines. (AID 1963452)
# Settings: PEO1/OlaR viability, CellTiter-Glo luminescence, 96 h; measured here: PEO1 parental viability
# Method in brief: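 PEO1, PEO4 and PEO1/OlaR ovarian cancer cells, 600 per well, exposed 96 h at 37C to a dilution series. Viability read by CellTiter-Glo luminescence, normalized to DMSO and empty wells; activity summarized as Z-AUC.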
# Tags describe the fitted curve by direction and shape.
row,SMILES,AC50
1,CN1CCN(c2ccc(C(=O)Nc3n[nH]c4ccc(Cc5cc(F)cc(F)c5)cc34)c(NC3CCOCC3)c2)CC1,"5.49 µM [falling, full curve]"
2,CN1CCC(c2c(O)cc(O)c3c(=O)cc(-c4ccccc4Cl)oc23)C1CO (centres undefined),"1.1 µM [falling, full curve]"
3,Cc1ccc(Nc2ncc3c(n2)N(C)C(=O)N(c2cc(NC(=O)c4cccc(C(F)(F)F)c4)ccc2C)C3)cn1,"0.0977 µM [falling, full curve]"
4,COc1cc(S(C)(=O)=O)ccc1Nc1nc2ccc(-c3ccc(NC(=O)[C@H](C)c4ccc(F)cc4)cc3)cn2n1,"0.049 µM [falling, full curve, poor fit]"
5,CO[C@H]1/C=C\C=C(\C)C(=O)NC2=CC(=O)C(NCCN(C)C)=C(C[C@@H](C)C[C@H](OC)[C@H](O)[C@@H](C)/C=C(/C)[C@@H]1OC(N)=O)C2=O,"0.347 µM [falling, full curve]"
6,COc1ccc(-c2cc(C(O)C3CCCCN3)c3ccccc3n2)cc1 (centres undefined),"12.3 µM [falling, partial curve]"
7,CC(C)(O)CCc1ccc(OCc2cc(-c3cccc(OC(F)F)c3)c3ncccc3c2)cc1,"15.5 µM [falling, single point]"
8,C[C@@H](OC[C@@]1(c2ccccc2)CC[C@]2(CCC(=O)N2)CN1)c1cc(C(F)(F)F)cc(C(F)(F)F)c1,"15.5 µM [falling, single point]"
9,Nc1ccn([C@@H]2C(F)=C(CO)[C@@H](O)[C@H]2O)c(=O)n1,"3.47 µM [falling, partial curve]"

# Reference: PubChem BioAssay (NCATS)
